In all, about 33,000 sequences were measured (“E-score (-0.5 to 0.5)”: median about -0.041, highest 2% from about 0.37 on). Some of the results follow.
Each sequence was assayed against T1, Ecm22 (UniProt Q05958) (assay: PBM E-score (8-mer binding enrichment) (E-score (-0.5 to 0.5)); higher = stronger / more preferred TF binding; most listed sequences are background and not binding sites). Details: protein concentration: 200 nM; construct: GST-full length.
T1 sequence: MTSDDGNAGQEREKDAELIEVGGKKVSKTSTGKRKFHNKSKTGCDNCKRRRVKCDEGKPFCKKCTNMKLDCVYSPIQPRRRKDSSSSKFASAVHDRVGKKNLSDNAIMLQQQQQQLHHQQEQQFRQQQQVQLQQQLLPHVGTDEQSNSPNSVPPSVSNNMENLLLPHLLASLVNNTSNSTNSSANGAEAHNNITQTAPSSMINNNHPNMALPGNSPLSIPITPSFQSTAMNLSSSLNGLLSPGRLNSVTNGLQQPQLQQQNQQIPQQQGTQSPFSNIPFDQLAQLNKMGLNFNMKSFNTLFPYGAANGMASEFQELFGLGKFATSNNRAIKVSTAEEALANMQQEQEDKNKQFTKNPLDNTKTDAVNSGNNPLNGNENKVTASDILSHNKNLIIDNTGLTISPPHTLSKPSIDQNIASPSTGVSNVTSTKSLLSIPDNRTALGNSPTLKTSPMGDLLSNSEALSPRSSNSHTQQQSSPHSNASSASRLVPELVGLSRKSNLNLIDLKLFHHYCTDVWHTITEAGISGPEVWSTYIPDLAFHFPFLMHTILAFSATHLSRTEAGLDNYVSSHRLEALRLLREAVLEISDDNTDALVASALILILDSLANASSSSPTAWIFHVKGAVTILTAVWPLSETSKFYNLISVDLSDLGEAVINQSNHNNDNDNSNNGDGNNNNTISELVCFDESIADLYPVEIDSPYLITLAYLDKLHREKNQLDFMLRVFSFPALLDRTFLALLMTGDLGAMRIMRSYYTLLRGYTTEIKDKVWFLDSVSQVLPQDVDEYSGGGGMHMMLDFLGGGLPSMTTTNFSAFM
In short: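 Yeast transcription factors carrying a GST tag, as full-length proteins or DNA-binding domains, were produced by PURExpress in vitro transcription/translation. About 100-200 nM protein was applied to universal all-10-mer Agilent arrays, double-stranded by primer extension on fresh or once-stripped slides. Bound protein was detected with fluorescent anti-GST, and scans were normalised with masliner. The Universal PBM Analysis Suite gave each ungapped eight-base word, pooled with its reverse complement, an E-score, a modified Wilcoxon-Mann-Whitney statistic.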

Sequence	PBM E-score
CCGTACCG	0.455
CTGGTCAA	-0.199
CTAGACCA	-0.149
ACGGAAGA	0.152
ATATTATA	0.212
ATACACCG	0.109
CACTCCTC	0.0492
CTACGACC	0.413
AGCTCCGG	-0.133
CCGGTCTA	-0.0788
AACCATTA	0.00626
AGGAGCTC	-0.0307
CAGGTCTA	-0.167
AGACCATC	-0.213
GAGGATGA	-0.0604
GGACCCAC	-0.0953
CACGAGCG	0.201
GACAAAGA	0.0201
GGCACAAA	-0.134
CAGTGTAA	-0.0725
GCCTTCCC	-0.256
TCGTACGA	0.469

Sequence	PBM E-score
GCATGGCC	-0.172
ATATAATC	-0.114
AACCACGG	-0.123
CCCAGCGG	-0.0361
ATTGGGCC	-0.0746
CGGCATTA	0.129
AGGAGGAC	-0.176
CCGCTCTA	-0.078
CTGGGGGA	-0.171
CAATGGGG	-0.225
CATAGTTC	0.0214
CGAACACC	0.0544
AATGAACG	0.319
AATACGAG	0.457
AACCTACC	-0.0947
AACCATCC	-0.148
CAGGCTCC	-0.34
AACAAAAT	-0.124
CAGCCCAC	-0.157
AGCTAGGG	-0.323
ACTCTCGA	-0.0775
CGTATTAA	0.331

Sequence	PBM E-score
ACCCTATG	-0.0759
ACAGTCCG	0.00967
GCGGGGCC	-0.0825
ACTATCGC	0.0663
CCCGGCCC	-0.183
TATAAAGA	-0.209
ACTAAGTC	-0.146
CTTCTTAC	0.0182
GCCAATAA	-0.0882
AAAGCTGT	-0.108
CTCAACCA	-0.258
CGACCCCA	-0.0197
ACGGTTGG	0.0347
ACCAGTAC	0.0332
CACGCACC	-0.137
ACTAGGCT	-0.0611
CTGTCTGC	-0.267
CCTTCTAG	-0.158
AGGCTAGA	-0.154
ATTCGCTA	0.158
AAACCGTA	0.27
AATCATCC	0.0233

Sequence	PBM E-score
AGGGCGCC	-0.161
CATACGGC	0.3
GATATAGA	0.0512
CTCATCAA	-0.109
CGATAGCA	0.193
ATGATCTA	0.0288
TAAACCTA	0.00328
TCCGTAGA	-0.0285
CAGGCTTA	-0.245
CTGGGTAC	0.174
AGTGGAAC	-0.0542
ACGGTAGG	-0.0294
AGGTCACT	-0.061
AGCGAACC	0.18
TACCGAGA	0.155
CAGACCAC	-0.238
GACTCAGA	-0.188
AATTTGAC	0.0442
AAGCCCCG	-0.152
TTGAGCAA	-0.0756

— the supplement of paper PMC3334620
